From article doi:10.1101/2021.11.17.468963 (bioRxiv, 2021)

Molecular target: the molecule itself
Assay: cryo-EM structure

B1: β-galactosidase from Escherichia coli (enzyme)
chain: not shown
binding result: binds
